Among all 390,000 compounds or so, about 17,000 (4.4%) were called active. The inconclusive results got no clear call from the source; some entries with a clear call stand among them for comparison. Calls follow the shape of the dose curve; as a rule, active = well fitted inhibition curve with a large enough effect; inconclusive = small, poorly fitted or top-dose-only effect; inactive = no such curve, though single readings can be large or run the other way. Potencies of inconclusive entries are doubtful fits and often do not repeat. A structure can be active in one record and inactive in another.
biological target: Lysine-specific demethylase 4A (Homo sapiens) (UniProt O75164); assay: qHTS Assay for Inhibitors of JMJD2A-Tudor Domain; conditions: AlphaScreen JMJD2A-Tudor / H3K4me3 peptide binding; activity change, negative = inhibition: at 114 µM (top of the series); also: nearly all actives have a fitted effect of over 50% in size
% is scaled to controls: 0 for no effect and ±100 for the full control effect; potency is read from the fitted curve at half-maximal effect; tags tell the direction and shape of the fitted curve.

UniProt O75164, sequence (O75164 whole entry, looked up, the tested form may be a part): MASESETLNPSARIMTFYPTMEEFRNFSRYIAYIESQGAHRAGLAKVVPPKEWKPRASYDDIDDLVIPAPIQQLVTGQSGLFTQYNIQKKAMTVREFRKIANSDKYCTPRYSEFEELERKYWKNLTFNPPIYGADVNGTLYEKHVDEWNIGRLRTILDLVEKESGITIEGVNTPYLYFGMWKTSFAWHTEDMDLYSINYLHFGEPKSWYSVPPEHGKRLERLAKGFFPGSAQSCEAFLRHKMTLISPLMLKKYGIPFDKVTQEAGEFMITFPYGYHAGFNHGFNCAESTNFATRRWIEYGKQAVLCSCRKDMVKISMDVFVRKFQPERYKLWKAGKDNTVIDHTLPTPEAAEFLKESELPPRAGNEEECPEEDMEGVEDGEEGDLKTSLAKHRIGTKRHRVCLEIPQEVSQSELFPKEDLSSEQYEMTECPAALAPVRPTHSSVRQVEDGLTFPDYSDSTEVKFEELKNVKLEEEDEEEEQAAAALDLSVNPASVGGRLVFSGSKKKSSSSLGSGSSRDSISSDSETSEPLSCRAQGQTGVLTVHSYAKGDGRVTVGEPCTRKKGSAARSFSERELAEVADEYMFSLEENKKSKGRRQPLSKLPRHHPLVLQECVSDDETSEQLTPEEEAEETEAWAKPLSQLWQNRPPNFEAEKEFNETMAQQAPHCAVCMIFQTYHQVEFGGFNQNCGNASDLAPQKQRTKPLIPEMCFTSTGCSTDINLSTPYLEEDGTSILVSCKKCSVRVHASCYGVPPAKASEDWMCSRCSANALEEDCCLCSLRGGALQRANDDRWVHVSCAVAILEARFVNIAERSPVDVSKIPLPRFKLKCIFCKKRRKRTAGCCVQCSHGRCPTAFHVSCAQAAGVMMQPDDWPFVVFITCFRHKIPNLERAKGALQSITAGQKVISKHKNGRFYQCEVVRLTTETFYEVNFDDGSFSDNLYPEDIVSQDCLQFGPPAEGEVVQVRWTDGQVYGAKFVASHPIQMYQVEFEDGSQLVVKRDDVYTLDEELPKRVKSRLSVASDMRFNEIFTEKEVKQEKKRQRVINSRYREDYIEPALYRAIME

Row | SMILES | Potency | activity change, negative = inhibition
1 | COc1ccc(-c2cc(C(F)(F)F)nc(SCCC(=O)Nc3c(C)cccc3C)n2)cc1 | inactive | –
2 | CC(C)CNc1cc(N2CCCC2)ccc1[N+](=O)[O-] | inconclusive: 31.6 µM [inhibitor, partial curve] | –
3 | C=CCOC(=O)C1=C(C)NC(=O)NC1c1ccc(N(C)C)cc1 (stereo unspecified) | inconclusive: 50.1 µM [inhibitor, partial curve] | –
4 | Cc1noc(C)c1C(=O)N1CCc2ccccc21 | inactive | –
5 | CCOC(=O)c1ccc(NC(=O)CCC(CC)C(=O)O)cc1 (stereo unspecified) | inconclusive: 89.1 µM [inhibitor, single point] | –
6 | CCN1/C(=C\c2ccc3cc(C)ccc3[n+]2CC)Sc2cc(C)c(C)cc21 | inconclusive: 15.8 µM [inhibitor, partial curve, poor fit] | –
7 | CN1CC=C2C(C#N)=C(N)C(C#N)(C#N)[C@H](c3ccoc3)[C@H]2C1 | inactive | –
8 | COc1ccccc1N1CCN(C(CNC(=O)C(=O)NCCc2ccccc2)c2cccnc2)CC1 (stereo unspecified) | active: 11.2 µM | –
9 | OC(CNCc1ccncc1)c1ccccc1 (stereo unspecified) | inconclusive: 39.8 µM [inhibitor, partial curve] | –
10 | O=c1[nH]c(CN2CCCCC2)nc2ccccc12 | inconclusive: 11.2 µM [inhibitor, partial curve] | –
11 | Cn1ccnc1SCC(=O)Nc1cc(Cl)ccc1Cl | inactive | –
12 | OC(COc1ccc(Br)cc1)CN1CCC(Cc2ccccc2)CC1 (stereo unspecified) | inactive | –
13 | CC1=NC(=O)C(N=Nc2ccccc2C(=O)O)N1c1ccccc1 (stereo unspecified) | inconclusive: 31.6 µM [inhibitor, full curve, poor fit] | –
14 | NC(N)=Nc1ccc(C=C2C=Cc3ccccc32)cc1 | inconclusive: 22.4 µM [inhibitor, full curve] | –
15 | COc1ccc(S(=O)(=O)NCCCn2ccnc2)cc1C(C)(C)C | inactive | –
16 | CC1=CC2C(C3C=CC2(C)C(=O)C3(C)O)C(C)(O)C1=O (stereo unspecified) | inactive | –
17 | N=c1c(-c2nc3ccccc3[nH]2)cc(C(=O)c2cccs2)nn1-c1ccccc1 | inactive | –
18 | COc1cccc(NC(=O)CCNC(=O)Cn2ccc3ccccc3c2=O)c1 | inactive | –
19 | COc1cccc(NC(=S)N/N=C2/CCCCc3ccccc32)c1 | inconclusive: 44.7 µM [inhibitor, partial curve] | –
20 | CCOC(=O)COc1ccc(/C=C2/C(=O)NN(c3ccc(F)cc3)C2=O)cc1OC | inconclusive: 79.4 µM [inhibitor, partial curve] | –
21 | Cc1ccc(C(=O)C(SC(C)(C)C)n2cncn2)cc1 (stereo unspecified) | inactive | –
22 | Cc1ccc(NC(=O)CCCc2ccccc2)c([N+](=O)[O-])c1 | inconclusive: 56.2 µM [inhibitor, partial curve] | –
23 | Cc1ccc(C(=O)NC(Cc2c[nH]c3ccccc23)C(=O)O)o1 (stereo unspecified) | inconclusive: 89.1 µM [inhibitor, single point] | –
24 | O=c1c2c(-c3ccc([N+](=O)[O-])cc3)csc2nc2n1CCCCC2 | inconclusive: 50.1 µM [inhibitor, partial curve] | –

Row | SMILES | Potency | activity change, negative = inhibition
25 | Cc1nc(-c2ccc(C(=O)O)cc2)cs1 | inconclusive: 50.1 µM [inhibitor, partial curve] | –
26 | Cc1c(C(=O)N2CCC(C)CC2)c(S(=O)(=O)N2CCN(c3ccc(Cl)cc3)CC2)c(C)n1C | inconclusive: 56.2 µM [inhibitor, partial curve] | –
27 | COc1ccc(N2CCN(C(=O)c3oc4ccccc4c3NC(=O)c3ccccc3OC)CC2)cc1 | inconclusive: 25.1 µM [inhibitor, full curve] | –
28 | O=C(NC1CCCCC1)c1cc(S(=O)(=O)N2CCOCC2)c(Cl)cc1Cl | inconclusive: 1.26 µM [inhibitor, full curve, poor fit] | –
29 | O=C1C=C(/C=C/c2ccccc2)C[C@@H](c2ccc3c(c2)OCO3)C1 | inconclusive: 25.1 µM [inhibitor, partial curve, poor fit] | –
30 | CC(NC(=O)c1cccs1)C(c1cccs1)N1CCN(Cc2ccccc2)CC1 (stereo unspecified) | inconclusive: 100 µM [inhibitor, single point] | –
31 | O=C(OCC(=O)N1CCCCCC1)c1ccc([N+](=O)[O-])cc1Cl | inactive | –
32 | CC(C)C[C@H](NC(=O)c1nc[nH]c1C(=O)NCCCCCN)C(=O)OCc1ccccc1 | active: 79.4 µM | –
33 | COc1ccc(/C(C)=N/Nc2ccccc2Cl)c(O)c1 | inconclusive: 7.94 µM [inhibitor, single point] | –
34 | Cc1ccc(OCC(=O)Nc2ccccc2N2CCCC2)c(C)c1 | inactive | –
35 | COc1cc(CN2CCC(C)CC2)ccc1OCc1ccccc1 | active: 25.1 µM | –
36 | CCCSc1ccc([C@@H]2[C@H]3C(=O)N(C)C(=O)[C@H]3[C@]3(C(=O)OC)CCCN23)cc1OC | inconclusive: 50.1 µM [inhibitor, partial curve] | –
37 | Cc1ccc(S(=O)(=O)N2CCCC(C(=O)O)C2)s1 (stereo unspecified) | inconclusive: 44.7 µM [inhibitor, partial curve] | –
38 | CCCc1cc2c(-c3ccccc3)cc(=O)oc2cc1OCc1ccc(C(=O)O)o1 | – | inactive: -19.5% [at 11.4 µM]
39 | O=c1[nH]c(CN2CCN(C/C=C/c3ccccc3)CC2)nc2cc(Cl)ccc12 | inconclusive: 89.1 µM [inhibitor, partial curve, poor fit] | –
40 | Cc1cccc(N2CCN(C3(c4ccccc4)C(=O)c4ccccc4C3=O)CC2C)c1 (stereo unspecified) | inconclusive: 25.1 µM [inhibitor, partial curve] | –
41 | Cc1[nH]c2ccccc2c1C(c1ccncc1)N1CCN(c2ccc(F)cc2)CC1 (stereo unspecified) | inconclusive: 28.2 µM [inhibitor, single point] | –
42 | CC(=O)N1CC(C)Sc2ccc(S(=O)(=O)NC3CCCCC3C)cc21 (stereo unspecified) | inconclusive: 28.2 µM [inhibitor, partial curve] | –
43 | CCCn1nc(C(=O)NCCN2CCOCC2)c2ccccc2c1=O | inconclusive: 8.91 µM [inhibitor, full curve, poor fit] | –
44 | Cc1ccc(C(c2sc3nc(-c4ccco4)nn3c2O)N2CCN(Cc3ccccc3)CC2)cc1 (stereo unspecified) | inconclusive: 56.2 µM [inhibitor, partial curve] | –
45 | COc1ccccc1CNC(=O)c1cnn2c(C)c(Cc3ccc(F)cc3)c(C)nc12 | inactive | –
46 | O=C1CC(c2ccco2)CC(O)=C1C=Nc1cc(Cl)cc(Cl)c1 (stereo unspecified) | inconclusive: 39.8 µM [inhibitor, partial curve] | –
47 | CCOC(=O)CN1C(=O)C(=O)N(Cc2ccccc2)C1=O | inactive | –
48 | O=C(Nc1ccc(N2CCN(Cc3ccccc3)CC2)cc1)c1ccco1 | inconclusive: 56.2 µM [inhibitor, partial curve] | –

Row | SMILES | Potency | activity change, negative = inhibition
49 | CN1CCN(c2ccc(S(=O)(=O)Nc3ccccc3)cc2[N+](=O)[O-])CC1 | inconclusive: 56.2 µM [inhibitor, single point] | –
50 | CCN(c1ccc(NC(=O)CCc2nc3sc4c(c3c(=O)[nH]2)CCCC4)cc1)C(C)C | inconclusive: 10 µM [inhibitor, partial curve] | –
51 | O=C(O)c1cccc(N2C(=O)c3cccnc3C2=O)c1 | inactive | –
52 | c1ccc2c3c([nH]c2c1)C(C1CCCCC1)N(Cc1ncc[nH]1)CC3 (stereo unspecified) | inconclusive: 56.2 µM [inhibitor, partial curve] | –
53 | O=c1c([N+](=O)[O-])c(N2CCOCC2)c2ccccc2n1Cc1ccccc1 | inconclusive: 89.1 µM [inhibitor, partial curve] | –
54 | N#C/C(=C\c1ccc(F)c(Cl)c1)S(=O)(=O)c1ccccn1 | inactive | –
55 | Cn1nc(Oc2ncc(C(F)(F)F)cc2Cl)cc1C(F)(F)F | – | inactive: -19.5% [at 11.4 µM]
56 | Cc1ccc(-n2c(-c3nn(C)cc3Cl)n[nH]c2=S)cc1 | active: 8.91 µM | –
57 | COc1ccc(OC)c(CCNC(=O)CCc2cn(C)c3ccccc23)c1 | inconclusive: 56.2 µM [inhibitor, partial curve] | –
58 | COc1ccc(Cn2c(=O)oc3ccccc32)cc1F | inactive | –
59 | O=C(CNCCc1ccc(Cl)cc1)Nc1ccc(C(=O)N2CCCCC2)cc1 | active: 3.16 µM | –
60 | O=C(COc1ccccc1)Nc1ccccc1C(=O)OCc1cc(=O)n2nc(C3CC3)sc2n1 | inactive | –
61 | CCOc1ccc(CNC(=O)CCC(=O)N2Cc3cccc(OC)c3Oc3ncccc32)cc1 | inconclusive: 56.2 µM [inhibitor, partial curve, poor fit] | –
62 | CCOc1ccc(N(CC(=O)O)S(=O)(=O)c2cccnc2)cc1 | inactive | –
63 | COc1ccc(N(C(=O)CS(=O)CC(=O)Nc2ccc(F)cc2)C(C(=O)NC2CCCCC2)c2cccs2)cc1 (stereo unspecified) | inactive | –
64 | Cc1ccc(Cl)cc1N1CCN(C(=O)C2CCN(Cc3nc(-c4cccc(Cl)c4)oc3C)CC2)CC1 | inconclusive: 44.7 µM [inhibitor, partial curve] | –
65 | Cc1ccccc1C(=O)Nc1nnc(S(=O)(=O)N2CCCCCC2)s1 | active: 39.8 µM | –
66 | CC1=C([N+](=O)[O-])C(c2ccccc2)C2=C(N1)c1ccccc1C2=O (stereo unspecified) | active: 25.1 µM | –
67 | Cc1cccc(-c2nc(SCC(=O)Nc3ccc4c(c3)OCCO4)c(-c3ccccc3)[nH]2)c1 | inconclusive: 31.6 µM [inhibitor, full curve, poor fit] | –
68 | COc1ccc(N2CCN(CC(=O)Nc3cccc(S(=O)(=O)N4CCOCC4)c3)CC2)cc1 | active: 7.94 µM | –
69 | CCOc1ccc(C2c3[nH]c4ccccc4c3CCN2CCCn2cccn2)cc1 (stereo unspecified) | inconclusive: 50.1 µM [inhibitor, partial curve] | –
70 | O=C1C=C(Nc2ccccc2)C(=O)c2ccccc21 | inconclusive: 12.6 µM [inhibitor, full curve] | –
71 | COc1ccc([N+](=O)[O-])cc1N(CC(=O)NC(C(C)C)C(C)C)S(C)(=O)=O | – | inactive: -3.01% [at 11.4 µM]

Reference: PubChem BioAssay AID504339 (National Center for Advancing Translational Sciences (NCATS), 2011)
